Data: PubChem BioAssay AID686979 (National Center for Advancing Translational Sciences (NCATS), 2013)
Screen size: about 420,000 compounds; about 50,000 (12%) were called active. Inconclusive results, whose numbers are uncertain, are shown with a selection of clear calls. Calls follow the shape of the dose curve; as a rule, active = well fitted inhibition curve with a large enough effect; inconclusive = small, poorly fitted or top-dose-only effect; inactive = flat fitted curve, though single readings scatter. No potency is given beside an inconclusive call; the fits are too rough.

Assay: qHTS for Inhibitors of human tyrosyl-DNA phosphodiesterase 1 (TDP1): qHTS in cells in presence of CPT; also: nearly all actives have a fitted effect of over 55% in size
Settings: chicken DT40 Tdp1-/-;hTDP1 cells + 20 nM CPT, ATP luminescence, 48 h; activity change, negative = growth inhibition: at 46.2 µM (top of the series) unless noted
Outline: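 Chicken DT40 Tdp1-/- cells complemented with human TDP1, 400 cells/well, exposed to compounds plus 20 nM camptothecin for at least 48 h at 37 C; viability read as ATP content by CellTiter-Glo luminescence.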
% is scaled to controls: 0 for no effect and ±100 for the full control effect; potency is read from the fitted curve at half-maximal effect; tags tell the direction and shape of the fitted curve.

| SMILES | Potency | activity change, negative = growth inhibition |
| --- | --- | --- |
| COc1ccc(NC(=O)N2CCc3c(sc4c3CCCC4)C2c2ccc(F)cc2)cc1 (stereo unspecified) | inconclusive [inhibitor, single point] |  |
| O=S(=O)(c1ccccc1)N(CC(O)Cn1c2ccccc2c2ccccc21)c1ccccc1 (stereo unspecified) | inconclusive [inhibitor, single point] |  |
| CC1CC(C)CN(S(=O)(=O)c2ccccc2[N+](=O)[O-])C1 (stereo unspecified) | active: 13 µM |  |
| Cc1ccc2nc(-c3ccccc3)c(Cc3cccc(Cl)c3)n2c1 | active: 20.6 µM |  |
| CC(C)Nc1nc(NC(C)(C)C)nc(Oc2ccc(=O)n(-c3ccccc3)n2)n1 | inconclusive [inhibitor, single point] |  |
| O=C(CCc1nc2ccccc2c(=O)[nH]1)NNC(=O)COc1ccc(Br)cc1 |  | inconclusive: -30.9% [inhibitor] |
| CCOc1ccc(-c2nnc(Nc3ccc(OC)c(C(=O)N4CCCCC4)c3)c3ccccc23)cc1 | inconclusive [inhibitor, single point] |  |
| FC(F)(F)c1nnc2ccc(N3CCCCC3)nn12 | inactive |  |
| CCN(CC(=O)Nc1c(F)cccc1F)C(=O)c1cccc(S(=O)(=O)N2CCc3ccccc3C2)c1 | inconclusive [inhibitor, single point] |  |
| O=C(O)c1cccc(NC(=O)c2cccc(S(=O)(=O)Nc3cccc(C(=O)O)c3)c2)c1 | inactive |  |
| Cc1ccccc1-c1noc(N)c1C#N | active: 25.9 µM |  |
| Cc1onc(-c2ccccc2)c1C(=O)Nc1cccc2nsnc12 | inconclusive [inhibitor, single point] |  |
| COc1cccc(NC(=O)c2cccc(C)c2[N+](=O)[O-])c1 | inactive |  |
| CC(C)(C)OC(=O)NCCCCCc1nnc(SCc2cccc(F)c2)o1 | inconclusive [inhibitor, single point] |  |
| CCc1ccc(CNC(=O)c2cc3c(=O)oc4ccc(C)cc4c3s2)cc1 | inconclusive [inhibitor, single point] |  |
| COc1ccc(-c2nc(NC(=O)C3CC(=O)N(Cc4ccco4)C3)sc2C)cc1 (stereo unspecified) | active: 16.4 µM |  |
| CCC(=O)Oc1ccc(NC(=O)c2ccc(S(=O)(=O)N3CCCC3)cc2)cc1 | inconclusive [inhibitor, single point] |  |
| COC(=O)C1=C(C)NC(=O)CC1c1cc2c(cc1Br)OCO2 (stereo unspecified) | inactive |  |
| O=C(c1cc([N+](=O)[O-])ccc1Cl)N1CCN(Cc2ccc3c(c2)OCO3)CC1 | inconclusive [inhibitor, single point] |  |
| CCN(C(=O)c1sc2nc3n(c(=O)c2c1C)CCCCC3)c1ccccc1F | inconclusive [inhibitor, single point] |  |
| CCNc1c(NS(=O)(=O)c2ccc(Br)s2)c(=O)oc2ccccc12 | inactive |  |
| CCN(c1ccccc1)S(=O)(=O)c1ccc(Cl)c(NC(=O)CSc2nnc(C)s2)c1 | inconclusive [inhibitor, single point] |  |
| COc1ccc(CN2CCN(CC3CC3)CC2CCO)c(C)c1C (stereo unspecified) | inconclusive [inhibitor, single point] |  |
| COc1ccc(CN2c3cc(S(=O)(=O)N4CCOCC4)ccc3N3CCCC32)cc1 (stereo unspecified) | inconclusive [inhibitor, single point] |  |

| SMILES | Potency | activity change, negative = growth inhibition |
| --- | --- | --- |
| O=[N+]([O-])c1cccc(/C=N/Nc2ncc(Br)cn2)c1 | inactive |  |
| Cc1cccc(-c2cc3nc4c(c(NCc5ccco5)n3n2)CCCC4)c1 | inconclusive [inhibitor, partial curve, poor fit] |  |
| CN(C)C(=O)c1ccc(S(=O)(=O)NCc2ccccc2Cl)s1 |  | inconclusive: -32% [inhibitor] |
| Cc1ccccc1NC(=O)c1cc2c(C)nc3ccccc3c2o1 | inconclusive [inhibitor, single point] |  |
| CS(=O)c1ccccc1-c1nc(-c2cccc(Cl)c2)no1 (stereo unspecified) | inconclusive [inhibitor, single point] |  |
| N#Cc1ccccc1S(=O)(=O)N1CCN(C(=O)[C@@H]2CCCN2C(=O)c2cccs2)CC1 | inactive |  |
| CCOc1ccc(-n2c(SCc3ccc([N+](=O)[O-])cc3)nnc2-c2ccc(OC)cc2)cc1 | active: 18.4 µM |  |
| Cn1ncc([N+](=O)[O-])c1C(=O)Nc1ccc(C2CCCCC2)cc1 | inconclusive [inhibitor, partial curve, poor fit] |  |
| CC(C)Oc1cccc(C(=O)NC(=S)Nc2ccc(N3CCN(C)CC3)cc2)c1 | inconclusive [inhibitor, single point] |  |
| CCCc1cc(=O)oc2c(C)c3occ(C)c3cc12 | inconclusive [inhibitor, single point] |  |
| COc1cccc(NC(=O)Cn2c(=O)n(Cc3ccccc3)c(=O)c3c4c(sc32)CN(C(C)=O)CC4)c1 | inconclusive [inhibitor, single point] |  |
| CCCCN(C)CCNC(=O)Cn1ncc2c(=O)oc3ccc(C)cc3c21 | inactive |  |
| COc1ccc(-c2cc(C(F)(F)F)nc(SCC(=O)NCc3ccc(F)cc3)n2)cc1 | inconclusive [inhibitor, partial curve, poor fit] |  |
| O=[N+]([O-])c1cccc(S(=O)(=O)c2ccc(N3CCCCC3)c([N+](=O)[O-])c2)c1 | inconclusive [inhibitor, single point] |  |
| COc1ccc(C2NCCc3c2[nH]c2ccccc32)cc1COc1ccc(F)cc1 (stereo unspecified) | inconclusive [inhibitor, single point] |  |
| CN(C)CCCNc1nc2sc3c(c2c(=O)n1CCc1ccccc1)CCCCC3 | inconclusive [inhibitor, single point] |  |
| COc1ccc(/C=C/C(=O)NCc2ccc(F)cc2)cc1S(=O)(=O)N1CCOCC1 | inactive |  |
| O=C1CC[C@@H](OCc2ccccc2)CCN1CC[C@H](Sc1ccccc1)c1ccccc1 | active: 15.8 µM |  |
| COc1ccc(OC)c(S(=O)(=O)NC(=O)C2(C)CCN2C(=O)Cc2ccccc2Cl)c1 (stereo unspecified) | inactive |  |
| CCC1(C)COC(C)(CC(=O)NNC(=O)Nc2ccccc2)OC1 (stereo unspecified) | inactive |  |
| CC(CCc1ccccc1)NC(=O)CN1CCN(c2ccc(O)cc2)CC1 (stereo unspecified) | inconclusive [inhibitor, single point] |  |
| COc1ccc(-n2cc3c(c2-c2cccc(Br)c2)c(=O)n(C)c(=O)n3C)cc1OC | active: 20.6 µM |  |
| CNC(=O)[C@@H]1CCC(=O)N1 | inactive |  |
| CCCCc1ccc(NC(=O)Cn2cnc3c2c(=O)n(C)c(=O)n3C)cc1 | inactive |  |

| SMILES | Potency | activity change, negative = growth inhibition |
| --- | --- | --- |
| Cc1nc(N2CCN(c3ccccn3)CC2)c2c(C)c(C(=O)Nc3ccc(F)cc3)sc2n1 | inconclusive [inhibitor, single point] |  |
| CCCSc1nsc(NC(=O)CC)n1 | inactive |  |
| CCOC(=O)C1CN(S(=O)(=O)c2ccc(C)cc2)CCN1S(=O)(=O)c1ccc(C)cc1 (stereo unspecified) | inconclusive [inhibitor, single point] |  |
| Cc1ccc(C)c(N2CCN(C(=O)Cn3cccc3)CC2)c1 | inconclusive [inhibitor, partial curve, poor fit] |  |
| CN(C)CCCNC(=O)c1cc(C(=O)C2CCCCC2)c[nH]1 | inactive |  |
| Cn1cc(CN2CCCC(CNC(=O)c3ccc4c(c3)OCO4)C2)c2ccccc21 (stereo unspecified) | inactive |  |
| Cc1cc(C)c(S(=O)(=O)NCc2ccc3c(c2)cc(C)n3C)c(C)c1 | inconclusive [inhibitor, partial curve, poor fit] |  |
| CCc1ccc(CN(C)Cc2nc(Cc3cccc(C(F)(F)F)c3)no2)nc1 | inactive |  |
| O=C(NN1CCN(Cc2ccccc2)CC1)c1ccc(N2CCOCC2)c([N+](=O)[O-])c1 | inactive |  |
| N#CC1(c2ccccc2)CCCN1C(=O)c1ccccc1Br (stereo unspecified) | inconclusive [inhibitor, single point] |  |
| Cc1nc2cc(C(=O)N3CCN(C)CC3)ccc2n1C | inactive |  |
| COc1ccc(S(=O)(=O)Nc2ccc3c(c2)C(=O)N([C@H](C)CO)C[C@H](C)[C@@H](CN(C)S(=O)(=O)c2cccs2)O3)cc1 | inconclusive [inhibitor, single point] |  |
| COc1ccc(NC(=O)CN(c2ccccc2C)S(C)(=O)=O)c(OC)c1 | inactive |  |
| Cc1cc(C(=O)Nc2ccc(OCc3ccccc3)cc2)c(C)o1 | inconclusive [inhibitor, partial curve] |  |
| Cc1cc(C)cc(C(=O)Nc2ccc(-c3cn4cccnc4n3)cc2)c1 | inconclusive [inhibitor, single point] |  |
| COc1ccc(N2CCN(C(=O)NCc3ccc(C)cc3)CC2)cc1 | inconclusive [inhibitor, partial curve, poor fit] |  |
| CCn1c(SCC(=O)NC2CCCC2)nnc1C(C)NC(=O)c1ccccc1Br (stereo unspecified) | inactive |  |
| COc1ccccc1N1CCN(S(=O)(=O)CCNC(=O)c2ccccc2Br)CC1 | inactive |  |
| COc1ccc2nc(N=Nc3ccc(N(C)C)cc3)sc2c1 | active: 16.4 µM |  |
| Cc1sc2ncnc(N3CCC(C(=O)N(C)CC(=O)Nc4cccc(F)c4)CC3)c2c1C | active: 9.2 µM |  |
| Cc1ccc(Oc2cnc3ccccc3n2)cc1 | inconclusive [inhibitor, partial curve, poor fit] |  |
| COc1cccc(CNC(=O)c2cc(S(=O)(=O)N3CCCCC3)ccc2C)c1 | inactive |  |
| Cc1csc(NC(=O)Cc2c(F)cccc2Cl)n1 | inconclusive [inhibitor, single point] |  |
